About 16,000 (7.3%) of roughly 220,000 compounds were called active. Inconclusive results, whose numbers are uncertain, are shown with a selection of clear calls. The call rests on the fitted dose curve; in most records, active means well fitted inhibition curve with a large enough effect (not every such curve was filed as active); inconclusive means small, poorly fitted or top-dose-only effect, or another doubt; inactive means no such curve, though single readings can be large or run the other way. A potency beside an inconclusive call is a rough fit, not a confirmed value.
These molecules were tested against Aldehyde dehydrogenase 1A1 (Homo sapiens) (UniProt P00352) (assay: qHTS Assay for Inhibitors of Aldehyde Dehydrogenase 1 (ALDH1A1)). Conditions: Purified ALDH1A1, NADH fluorescence, propionaldehyde substrate; series mostly up to 75.3 µM; activity, negative = inhibition: at the top concentration.
Potency means the concentration at half of the fitted maximal effect; tags describe the fitted curve by direction and shape.
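Wherever activity, negative = inhibition is given: plate controls were no enzyme wells and a reference inhibitor.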

Chain of UniProt P00352 (P00352 whole entry, looked up): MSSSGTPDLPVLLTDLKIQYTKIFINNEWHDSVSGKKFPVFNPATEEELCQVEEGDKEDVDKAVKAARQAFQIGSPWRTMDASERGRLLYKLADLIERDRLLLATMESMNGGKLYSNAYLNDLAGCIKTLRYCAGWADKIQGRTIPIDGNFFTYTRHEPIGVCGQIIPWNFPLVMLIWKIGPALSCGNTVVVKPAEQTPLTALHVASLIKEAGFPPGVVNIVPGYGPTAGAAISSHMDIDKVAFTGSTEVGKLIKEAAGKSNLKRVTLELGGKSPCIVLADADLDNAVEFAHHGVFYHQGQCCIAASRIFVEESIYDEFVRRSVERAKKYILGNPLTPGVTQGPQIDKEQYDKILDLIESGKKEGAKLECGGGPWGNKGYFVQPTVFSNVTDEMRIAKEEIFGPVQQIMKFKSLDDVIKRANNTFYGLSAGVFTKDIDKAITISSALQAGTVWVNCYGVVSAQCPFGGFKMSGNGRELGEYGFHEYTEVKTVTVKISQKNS

activity, negative = inhibition, inactive:
Nc1nc(C2C(=O)CCCC2=O)cs1 -15.3%
CC(=O)COC(=O)CCc1nc2ccccc2[nH]c1=O -2.83%
CN[C@H]1CCc2cc(OC)c(OC)c(OC)c2-c2ccc(N[C@@H]3CCCCNC3=O)c(=O)cc21 -7.63%
COC(=O)C/C=C\[C@@H](C)[C@H]1C=C[C@H](O)[C@@H](CO)O1 12.9% [at 13.5 µM]
COc1ccc(C(=O)Nc2nccs2)cc1OC 2.83%
CCOC(=O)N1CCN(C(=S)NC(=O)c2cc(Br)ccc2Cl)CC1 4.97%
Cc1ccc(C(=O)Oc2ccc(/C=N/NC(N)=O)cc2)cc1 1.19%
CCCCNC(=S)NNC(=O)CCn1nc(C)c(Br)c1C -5.18%
COC(=O)C1CC(=O)N(Cc2ccccc2)C1 (stereo not given) -2.4%

Potency, inconclusive:
COc1ccc(CC2(C)OC(c3ccc(C)cc3)=NN2C(C)=O)cc1 (stereo not given) 39.8 µM [inhibitor, single point]
O=C(Cn1cnc2c(nnn2Cc2ccccc2F)c1=O)OCc1ccccc1 0.0562 µM [inhibitor, full curve]
O=C(NCC1CCCO1)/C(=C\c1ccco1)NC(=O)c1ccc(Cl)cc1 (stereo not given) 39.8 µM [inhibitor, single point]
c1ccc2cc3[nH]c(CN4CCOCC4)nc3cc2c1 25.1 µM [inhibitor, partial curve]
COc1cc(C(=O)Nc2ccccc2N2CCOCC2)ccc1OCc1c(C)noc1C 39.8 µM [inhibitor, single point]
O=C(COc1ccc(C(=O)c2ccccc2)cc1)NCC1CCCCC1 28.2 µM [inhibitor, single point]
Cc1nn(-c2ccccc2)c(C)c1NC(=O)CCl 39.8 µM [inhibitor, single point]
CN1C(=O)/C(=C/c2cc(N=Nc3ccccc3)ccc2O)SC1=S 25.1 µM [inhibitor, single point]
COCCNC(=O)c1c(N)n(CCC2=CCCCC2)c2nc3ccccc3nc12 31.6 µM [inhibitor, partial curve]
CCCNS(=O)(=O)c1ccc(CCC(=O)N2CCN(c3ccc(OC)cc3)CC2)cc1 11.2 µM [inhibitor, partial curve]
CN(C)CCN1CCc2ccccc21 20 µM [inhibitor, single point]
Cc1ccc(C2NNC(=O)C2NC(=O)c2ccccc2)cc1 (stereo not given) 20 µM [inhibitor, single point]
COc1ccc(-c2cc(-c3ccccc3)nc(SCC(=O)Nc3nccs3)c2C#N)cc1 3.16 µM [inhibitor, partial curve]
O=Cc1ccc(-c2nc3ccccc3s2)o1 22.4 µM [inhibitor, partial curve]
O=C(O)CCCCn1c(SCc2cc(=O)n3cc(Cl)ccc3n2)nc2ccsc2c1=O 39.8 µM [inhibitor, single point]
CCOc1ccc(NC(=S)NNC(=O)c2ccc(Br)cc2)cc1 25.1 µM [inhibitor, single point]
CC(=O)NCCC(=O)Nc1sc2c(c1-c1nc3ccccc3[nH]1)CCCC2 39.8 µM [inhibitor, single point]
COc1cccc2sc(Nc3nnc(-c4ccccc4Cl)o3)nc12 39.8 µM [inhibitor, single point]
Cc1ccc(C(=O)N2CCN(c3ccc(NC(=O)CSc4ccc(Cl)cc4)cc3)CC2)cc1 39.8 µM [inhibitor, single point]
CCCCn1c2c(c3ccccc31)CCc1nonc1-2 14.1 µM [inhibitor, partial curve]
Cc1cc(NC(=O)CC(CN(C)S(=O)(=O)c2ccccc2)c2ccccc2)no1 (stereo not given) 39.8 µM [inhibitor, single point]
CCc1[nH]nc2c1C1(CCN(C(=O)c3ccccc3)CC1)C(C#N)=C(N)O2 37.7 µM [inhibitor, single point]
CCOc1cc(NC(=O)c2ccco2)c(OCC)cc1NC(=O)CCc1ccc(OC)cc1 39.8 µM [inhibitor, single point]
Cc1[nH]c2ccccc2c1/C=N/NC(=O)c1cccs1 39.8 µM [inhibitor, single point]
CC(/C=N/NC(=O)c1ccc2nc(C)[nH]c2c1)=C\c1ccccc1 39.8 µM [inhibitor, single point]
CN1CCN(CCCN(Cc2cccs2)C(=S)Nc2ccc(Cl)cc2)CC1 14.1 µM [inhibitor, partial curve, poor fit]
Cc1ccc(OCC(=O)NN=C2c3ccccc3-c3ccccc32)cc1 22.4 µM [inhibitor, single point]
CCOC(=O)CC(NS(=O)(=O)c1ccc(NC(C)=O)cc1)c1ccc(OCC)cc1 (stereo not given) 12.6 µM [inhibitor, partial curve]
O=C(NC(=S)Nc1nc2ccccc2s1)c1ccco1 39.8 µM [inhibitor, single point]
NS(=O)(=O)c1ccc(N2N=C(c3ccccc3)CC2c2ccc(F)cc2)cc1 (stereo not given) 11.2 µM [inhibitor, partial curve]

Potency, active:
Cc1nn(-c2ccccc2)c(C)c1C(=O)OCC(=O)NCc1ccco1 22.4 µM
Fc1cccc(Cl)c1CSc1nnnn1-c1ccc2c(c1)OCO2 14.1 µM
CCn1c(CNC(=O)COc2ccc(C(C)C)cc2)nnc1SCC(=O)Nc1ccc(F)cc1 28.2 µM
C/C(=N/NC(=O)CNC(=O)c1ccccn1)c1ccccc1 14.1 µM
CC1(C)CC(=O)C2=C(C1)OC(N)=C(C#N)C2C1C=CCCC1 (stereo not given) 3.98 µM
CCCCC(=O)Nc1sc(C(=O)N(CC)CC)c(C)c1C(=O)OC 8.91 µM

Source: PubChem BioAssay AID1030 (National Center for Advancing Translational Sciences (NCATS), 2008)
